{"sequences": {"note": "Amino acid sequences for entries named in this document (tags omitted). Residues count along the entry.", "UniProt Q01973, residues 30-937": "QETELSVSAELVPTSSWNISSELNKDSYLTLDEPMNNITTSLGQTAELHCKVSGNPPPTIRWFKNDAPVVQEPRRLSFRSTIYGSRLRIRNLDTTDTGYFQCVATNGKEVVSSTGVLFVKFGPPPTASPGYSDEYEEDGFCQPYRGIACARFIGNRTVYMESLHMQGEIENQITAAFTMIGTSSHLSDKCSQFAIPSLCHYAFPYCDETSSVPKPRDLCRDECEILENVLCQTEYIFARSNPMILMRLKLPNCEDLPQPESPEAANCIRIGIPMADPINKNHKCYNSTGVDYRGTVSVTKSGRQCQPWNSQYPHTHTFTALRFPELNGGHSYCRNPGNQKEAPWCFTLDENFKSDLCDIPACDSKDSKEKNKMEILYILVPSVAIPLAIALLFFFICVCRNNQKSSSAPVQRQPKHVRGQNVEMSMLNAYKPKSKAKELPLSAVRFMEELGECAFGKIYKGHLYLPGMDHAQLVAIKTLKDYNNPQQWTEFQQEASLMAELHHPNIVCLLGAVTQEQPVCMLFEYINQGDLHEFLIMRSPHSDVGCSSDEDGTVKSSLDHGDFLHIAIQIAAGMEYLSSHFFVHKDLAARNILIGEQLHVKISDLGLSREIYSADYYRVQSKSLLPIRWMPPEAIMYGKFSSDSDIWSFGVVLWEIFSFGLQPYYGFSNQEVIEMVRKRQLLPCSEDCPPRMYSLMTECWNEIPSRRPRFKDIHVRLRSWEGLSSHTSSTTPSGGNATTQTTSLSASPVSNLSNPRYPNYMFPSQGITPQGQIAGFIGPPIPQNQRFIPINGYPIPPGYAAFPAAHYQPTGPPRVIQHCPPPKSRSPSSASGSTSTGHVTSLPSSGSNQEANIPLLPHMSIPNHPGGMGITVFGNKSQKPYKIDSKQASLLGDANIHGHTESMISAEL", "UniProt Q01974, residues 34-943": "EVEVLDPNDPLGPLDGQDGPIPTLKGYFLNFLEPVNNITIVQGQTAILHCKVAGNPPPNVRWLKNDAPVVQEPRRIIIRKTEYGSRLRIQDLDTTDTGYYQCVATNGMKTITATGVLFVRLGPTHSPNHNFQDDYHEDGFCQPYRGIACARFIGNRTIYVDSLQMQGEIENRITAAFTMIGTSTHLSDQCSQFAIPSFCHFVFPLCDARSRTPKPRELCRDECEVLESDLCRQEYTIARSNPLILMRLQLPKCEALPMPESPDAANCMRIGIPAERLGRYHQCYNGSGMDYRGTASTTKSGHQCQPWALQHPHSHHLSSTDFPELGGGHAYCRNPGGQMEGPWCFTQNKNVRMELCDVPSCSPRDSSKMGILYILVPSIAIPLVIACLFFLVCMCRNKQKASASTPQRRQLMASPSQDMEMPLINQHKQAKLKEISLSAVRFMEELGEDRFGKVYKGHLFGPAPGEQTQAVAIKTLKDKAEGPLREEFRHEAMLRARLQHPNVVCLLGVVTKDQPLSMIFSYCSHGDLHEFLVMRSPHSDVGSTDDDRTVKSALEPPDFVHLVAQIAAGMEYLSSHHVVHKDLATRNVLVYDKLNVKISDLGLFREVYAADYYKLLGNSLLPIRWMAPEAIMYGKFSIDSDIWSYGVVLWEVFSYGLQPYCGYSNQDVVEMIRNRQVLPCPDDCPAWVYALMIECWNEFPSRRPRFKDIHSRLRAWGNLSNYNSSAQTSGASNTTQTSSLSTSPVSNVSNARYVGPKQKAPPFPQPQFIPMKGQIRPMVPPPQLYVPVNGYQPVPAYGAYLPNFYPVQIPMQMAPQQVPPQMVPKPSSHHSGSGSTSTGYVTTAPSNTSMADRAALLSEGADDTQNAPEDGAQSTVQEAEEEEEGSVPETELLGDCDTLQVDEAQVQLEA", "UniProt O08808, residues 82-379": "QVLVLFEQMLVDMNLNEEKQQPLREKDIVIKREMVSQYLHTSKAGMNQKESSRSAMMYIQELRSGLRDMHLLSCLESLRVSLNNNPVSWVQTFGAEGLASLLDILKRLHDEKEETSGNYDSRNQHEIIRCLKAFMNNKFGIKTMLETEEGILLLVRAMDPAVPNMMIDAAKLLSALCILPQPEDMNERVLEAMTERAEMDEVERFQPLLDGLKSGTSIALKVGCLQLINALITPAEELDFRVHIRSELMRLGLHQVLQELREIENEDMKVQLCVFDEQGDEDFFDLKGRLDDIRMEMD"}, "source": "paper PMC10570955", "key": {"Ror1-mCherry (human)": {"target": "Ror1-mCherry (human) (UniProt Q01973)", "test": "co-IP; whole-cell lysates of 293T cells expressing Flag-Rif with Ror1-mCherry or Ror2-mCherry; IP with anti-RFP antibody (recognizes mCherry), Western blotting; lysis buffer 50 mM Tris-HCl pH 7.4, 0.5% Nonidet P-40, 150 mM NaCl, 5 mM EDTA"}, "Ror2-mCherry (human)": {"target": "Ror2-mCherry (human) (UniProt Q01974)", "test": "co-IP; whole-cell lysates of 293T cells expressing Flag-Rif with Ror1-mCherry or Ror2-mCherry; IP with anti-RFP antibody (recognizes mCherry), Western blotting; lysis buffer 50 mM Tris-HCl pH 7.4, 0.5% Nonidet P-40, 150 mM NaCl, 5 mM EDTA"}, "[1]": {"target": "endogenous Ror1 (human (endogenous in PC9, HCC827, A549)) (UniProt Q01973)", "test": "co-IP; endogenous proteins; whole-cell lysates of PC9, HCC827 and A549 cells; IP with anti-Ror1 antibody or isotype-matched control immunoglobulin G, Western blotting"}, "[2]": {"target": "GST-mDia1-Rho-binding domain (RBD) fusion protein (mouse) (UniProt O08808)", "test": "pull-down; effector pull-down (affinity precipitation) with 20 ug of GST-mDia1-RBD or GST-rhotekin-RBD from PC9 lysates, endogenous GTPases; also after Ror1 knockdown (level of GTP-bound Rif unaltered); only the target purified"}, "[3]": {"target": "GST-mDia1-Rho-binding domain (RBD) fusion protein (mouse) (UniProt O08808)", "test": "pull-down; effector pull-down (affinity precipitation) with 20 ug of GST-mDia1-RBD from lysates of 293T cells expressing Rif WT, QL or TN; only the target purified"}}, "note": "No constants are given. Whether binding was seen depends on the method and setting. Binding seen in cells or lysates may run through a third protein. Some results given as binding are weak or reduced against the parent protein; the word gives no strength. For some of these results: Tags and fused reporters may be left off the sequences shown."}
{"binder": "Flag-Rif (Rho in filopodia, RhoF), wild type (protein, UniProt Q9HBH0 1-211) MDAPGALAQTAAPGPGRKELKIVIVGDGGCGKTSLLMVYSQGSFPEHYAPSVFEKYTASVTVGSKEVTLNLYDTAGQEDYDRLRPLSYQNTHLVLICYDVMNPTSYDNVLIKWFPEVTHFCRGIPMVLIGCKTDLRKDKEQLRKLRAAQLEPITYMQGLSACEQIRAALYLECSAKFRENVEDVFREAAKVALSALKKAQRQKKRRLCLLL", "values": [{"measurement": "binding", "setting": "Ror1-mCherry (human)", "value": "binds"}, {"measurement": "binding", "setting": "Ror2-mCherry (human)", "value": "binds"}]}
{"binder": "endogenous Rif (Rho in filopodia, RhoF) (protein, UniProt Q9HBH0 1-211) MDAPGALAQTAAPGPGRKELKIVIVGDGGCGKTSLLMVYSQGSFPEHYAPSVFEKYTASVTVGSKEVTLNLYDTAGQEDYDRLRPLSYQNTHLVLICYDVMNPTSYDNVLIKWFPEVTHFCRGIPMVLIGCKTDLRKDKEQLRKLRAAQLEPITYMQGLSACEQIRAALYLECSAKFRENVEDVFREAAKVALSALKKAQRQKKRRLCLLL", "values": [{"measurement": "binding", "setting": "[1]", "value": "binds"}, {"measurement": "binding", "setting": "[2]", "value": "binds"}]}
{"binder": "Rif(QL), constitutively active GTP-bound form, expressed in 293T cells (protein, UniProt Q9HBH0 1-211) MDAPGALAQTAAPGPGRKELKIVIVGDGGCGKTSLLMVYSQGSFPEHYAPSVFEKYTASVTVGSKEVTLNLYDTAGLEDYDRLRPLSYQNTHLVLICYDVMNPTSYDNVLIKWFPEVTHFCRGIPMVLIGCKTDLRKDKEQLRKLRAAQLEPITYMQGLSACEQIRAALYLECSAKFRENVEDVFREAAKVALSALKKAQRQKKRRLCLLL", "values": [{"measurement": "binding", "setting": "[3]", "value": "binds"}]}
{"binder": "WT Rif expressed in 293T cells (effector pull-down) (protein, UniProt Q9HBH0 1-211) MDAPGALAQTAAPGPGRKELKIVIVGDGGCGKTSLLMVYSQGSFPEHYAPSVFEKYTASVTVGSKEVTLNLYDTAGQEDYDRLRPLSYQNTHLVLICYDVMNPTSYDNVLIKWFPEVTHFCRGIPMVLIGCKTDLRKDKEQLRKLRAAQLEPITYMQGLSACEQIRAALYLECSAKFRENVEDVFREAAKVALSALKKAQRQKKRRLCLLL", "values": [{"measurement": "binding", "setting": "[3]", "value": "binds"}]}
{"binder": "Rif(TN), GDP-bound form, expressed in 293T cells (protein, UniProt Q9HBH0 1-211) MDAPGALAQTAAPGPGRKELKIVIVGDGGCGKNSLLMVYSQGSFPEHYAPSVFEKYTASVTVGSKEVTLNLYDTAGQEDYDRLRPLSYQNTHLVLICYDVMNPTSYDNVLIKWFPEVTHFCRGIPMVLIGCKTDLRKDKEQLRKLRAAQLEPITYMQGLSACEQIRAALYLECSAKFRENVEDVFREAAKVALSALKKAQRQKKRRLCLLL", "values": [{"measurement": "binding", "setting": "[3]", "value": "no binding"}]}
